Experimental data from the supplement of paper PMC10126150.
Values marked as one replicate rest on one cluster of the flow cell; about a third of the high ones do not repeat.

Test system: ATP
Assay: switch fluorescence ratio, 500 uM ATP over buffer (Cy3 cluster intensity, sum of 5 cycles each) (fold (ratio)); higher = stronger signal-on switching upon ATP binding; sequences stand for … in TCGTCGGCAGCGTCAGATGTGTATAAGAGACAGTTTTTTTTTTTTTTTTTTTTTTTTT…TC
Details: aptamer strand: ATP DNA aptamer (quencher-CACCTGGGGGAGTATTGCGGAGGAAGG + anchor), 100 nM annealed; ATP concentration: 500 uM; one replicate
Summary of the method: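 Exposure to 500 uM ATP lasted 15 min at 22 °C before imaging, and a selection-buffer image was taken beforehand, for Cy3-labelled switching-strand clusters on a modified Illumina MiSeq flow-cell annealed to 100 nM quencher-labelled ATP aptamer. Five buffer/ATP cycles were run with NaOH stripping and re-annealing between them. The fluorescence ratio per cluster is summed target-cycle over summed buffer-cycle Cy3 intensity, averaged per switch-domain sequence. Clusters outside 100-1000 RFU were excluded.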

| Sequence | switch fluorescence ratio |
| --- | --- |
| GTTACGTTGC | 1.04 |
| GCGCCTCCGA | 2.55 |
| AAGATACCAC | 1.16 |
| GGCATGGCTG | 0.993 |
| GAATCCCGAG | 0.978 |
| CAATCATTG | 0.972 |
| GGGTAAGAC | 1.01 |
| GGGTTATGTG | 0.983 |
| GGTGGGGGAC | 0.989 |
| GACCAATGGA | 0.991 |
| AGGACGATTT | 1.03 |
| CAAACCTTCT | 1.48 |
| GCAGACTAGG | 0.925 |
| CGAAATGTTA | 0.977 |
| CACGTCTGGA | 0.975 |
| AGCGAGTTAT | 1 |
| AAGTCGATAC | 3.17 |
| ATAATAACTA | 1 |
| CTTAAACTAT | 0.993 |
| GCTAAACTCT | 1.03 |
| TAAGGAGG | 1.01 |
| ACCACTATTT | 1.06 |

| Sequence | switch fluorescence ratio |
| --- | --- |
| TAGTATGAGC | 1.03 |
| CGAGGTTGGT | 0.993 |
| GGATGAACCC | 0.999 |
| GAGGTTGATA | 1.02 |
| TTTATTCCTC | 0.997 |
| TCCCGATTGT | 0.987 |
| GAACCGGTCA | 1.03 |
| CTGGGGAATG | 1.01 |
| TGACGGTTTT | 1.03 |
| TGCGGATCGG | 0.981 |
| ACTAGGTGCT | 0.951 |
| CCCCAATTGG | 1 |
| TGTAAGGCGA | 0.972 |
| CTACGGCCTT | 1.08 |
| TCACGATGCG | 1.06 |
| TTAACGTAA | 1.25 |
| GACTTGGCGC | 1.01 |
| AAATTTTGTG | 0.954 |
| TTTGTATATA | 1 |
| TACACCGAGT | 1.06 |
| TTTGCGTAGT | 0.994 |
| AGGATCAAGT | 0.998 |

| Sequence | switch fluorescence ratio |
| --- | --- |
| ATTTAT | 0.993 |
| CAAGTTCCCC | 1.14 |
| CTTTAGAGGA | 0.998 |
| GGGGGATACA | 1.1 |
| TAGTCCCCCG | 0.997 |
| TGGTACCGTG | 1.02 |
| ACGTGTTCGA | 1.03 |
| TCCCGGAAGT | 1.02 |
| GATAGGTCAA | 0.983 |
| ATAAGACACC | 1.06 |
| TTTTAGGGA | 1.03 |
| GACATTTGGC | 0.962 |
| TCAAATGTGG | 1 |
| GAGATCTGAT | 0.973 |
| CCTCGGGTCA | 1.21 |
| CTCACCGTAA | 2.68 |
| TGTAGCACTT | 1.05 |
| CGGCCTTCCA | 1.53 |
| AGTGAATCGC | 0.993 |
| CCGAGGCGCG | 1.36 |
| CGTTCGTCT | 1.01 |
| AAACCCCGAG | 1.42 |

| Sequence | switch fluorescence ratio |
| --- | --- |
| TGCGCTTGAC | 1.59 |
| ATCGCCTGAC | 2.01 |
| TTCCGCTGGG | 1.5 |
| GATTTTATAC | 1.05 |
| TACTAGGCAC | 1.03 |
| TGATTTTTAA | 0.976 |
| TCCAAGGATA | 1.01 |
| AACTCCACCT | 1.3 |
| GGTCCTGGCA | 1.03 |
| TACTTGGGAC | 1 |
| GAATACATAG | 1.06 |
| TAGTCCGTTT | 0.982 |
| GATGTGTTTG | 1.03 |
| AATGGTGTGC | 0.986 |
| TTCCGGGGAC | 1.51 |
| CGAGATTAAG | 1.02 |
| ATAGCAGTGT | 1 |
| GGTCTATTGT | 1 |
| GCCTAGGCGC | 1.01 |
